# Measurements from the supplement of paper PMC3334620.
# The full ranking holds about 33,000 sequences; the median of “E-score (-0.5 to 0.5)” is about -0.011, and the highest 2% start at about 0.28. The list shows a part of the results.
# Biological target: T1, Gcr1 (UniProt P07261)
# T1 sequence: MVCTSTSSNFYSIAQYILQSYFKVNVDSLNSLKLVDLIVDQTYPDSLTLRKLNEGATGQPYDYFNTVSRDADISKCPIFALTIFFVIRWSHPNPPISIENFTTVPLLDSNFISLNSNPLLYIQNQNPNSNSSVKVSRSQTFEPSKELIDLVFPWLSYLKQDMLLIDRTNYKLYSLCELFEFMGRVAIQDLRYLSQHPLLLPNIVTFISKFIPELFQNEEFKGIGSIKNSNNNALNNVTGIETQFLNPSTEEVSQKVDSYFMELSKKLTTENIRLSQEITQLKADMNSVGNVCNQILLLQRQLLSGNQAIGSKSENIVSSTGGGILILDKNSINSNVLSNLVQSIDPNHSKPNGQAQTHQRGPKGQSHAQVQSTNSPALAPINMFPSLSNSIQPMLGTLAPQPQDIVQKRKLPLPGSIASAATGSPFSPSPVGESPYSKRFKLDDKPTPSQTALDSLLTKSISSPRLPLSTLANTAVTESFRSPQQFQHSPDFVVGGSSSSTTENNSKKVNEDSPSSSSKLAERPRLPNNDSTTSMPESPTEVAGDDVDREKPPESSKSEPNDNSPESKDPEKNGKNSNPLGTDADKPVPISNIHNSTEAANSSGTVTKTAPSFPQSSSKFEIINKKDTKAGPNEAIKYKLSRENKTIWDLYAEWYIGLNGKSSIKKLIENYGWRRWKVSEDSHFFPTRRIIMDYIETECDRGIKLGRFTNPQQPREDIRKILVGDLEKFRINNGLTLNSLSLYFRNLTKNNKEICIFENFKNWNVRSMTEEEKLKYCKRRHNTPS
# Assay: PBM E-score (8-mer binding enrichment) (E-score (-0.5 to 0.5)); higher = stronger / more preferred TF binding; most listed sequences are background and not binding sites
# Conditions: protein concentration: 100 nM; construct: GST-full length
# How it was run: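 Universal all-10-mer Agilent arrays, fresh or stripped once, were converted to double-stranded form by primer extension. GST-tagged yeast transcription factors from PURExpress in vitro transcription/translation, full-length or DNA-binding domain only, were applied at about 100-200 nM and detected with fluorescent anti-GST. After masliner normalisation, the Universal PBM Analysis Suite scored each ungapped eight-base word together with its reverse complement by E-score.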
row,Sequence,PBM E-score
1,AAAGAGGG,-0.00258
2,CTCCCTCC,-0.125
3,CAACTGCG,0.0257
4,AACCATAC,0.0678
5,TGACTACA,-0.136
6,CACTACGC,-0.185
7,ATCCAGGA,0.0912
8,GAGCAAAA,-0.0848
9,AGGCCCTA,-0.0249
10,AGATACTA,0.0512
11,CAGGTAGG,-0.0283
12,CACTTGGA,0.136
13,AGAGTCAC,-0.0878
14,ACTAGTAA,0.194
15,ACATTCGG,0.0771
16,GAACAGCC,-0.0918
17,CGTTAACC,-0.0119
18,AATATTAT,0.0888
19,CGAAAACC,-0.0887
20,GACTGAAA,-0.111
21,AGCCATCA,-0.145
22,GAGAAAGA,-0.16
23,TCTAGGAA,0.105
24,AGTCCCTC,-0.274
25,GGAAGGAA,-0.0435

row,Sequence,PBM E-score
1,CTCTCGGC,0.0316
2,AAGTGGGA,0.135
3,CCTCAACC,-0.218
4,AGCTAGCC,-0.21
5,ACTCCGTC,-0.0253
6,GCCCGAAC,0.0128
7,AACACAAG,0.11
8,TGAAAACA,0.143
9,AGAAAGCA,0.06
10,ACCCACCC,0.0924
11,GGTAGTAC,-0.193
12,GACATCAA,0.0894
13,CTCCCGCA,0.0905
14,AAGGTATG,0.0151
15,ATTCGAGA,-0.0119
16,ACTTGTGA,-0.00264
17,CTCAACAC,-0.0327
18,GGTTGGGA,-0.0666
19,CATATCGA,0.036
20,CAGGCGGC,0.0944
21,CCACTCCC,0.0667
22,ATCTATAC,0.138
23,CGGCTTGC,0.0778
24,AACACAGC,-0.0364
25,CTGACCCC,-0.377

row,Sequence,PBM E-score
1,ACCGTTGA,-0.151
2,AATCCTCT,-0.0749
3,ACCGTACT,-0.00317
4,CACTTCAG,-0.0776
5,ACACTTAT,-0.0887
6,GTTGGCGA,-0.0272
7,CCGGATCA,0.134
8,CCGATGCA,-0.136
9,AATACGAT,0.183
10,ATACGCGA,0.102
11,CAGTCTCG,-0.174
12,CTCTACTA,0.215
13,ATACAGGG,0.15
14,CCAGCTAG,-0.00082
15,CTCAGGCA,0.079
16,AGAAGAAG,0.437
17,CTGGTCCA,-0.0598
18,ATACCGCA,-0.121
19,GATAGCGA,-0.14
20,CCTGTGCC,-0.0993
21,CTTGCAAC,-0.141
22,AAAATCCC,-0.0483
23,GCTGACAA,0.0626
24,GGTGCCCA,0.382
25,ATCAACGC,-0.105

row,Sequence,PBM E-score
1,AGTACGTG,-0.139
2,ATACAGAG,0.0677
3,GCCGCAAC,0.193
4,GAACCTAC,0.0135
5,ACATCGGG,-0.0963
6,ACTTAGTA,-0.0141
7,ACTTACAG,-0.152
8,CGCGGTCA,-0.244
9,GTACTAGA,-0.0233
10,AAGCCTGA,-0.226
11,CAGACTTA,-0.22
12,GCTACAGA,-0.0121
13,CCTGACCA,-0.0197
14,CGCGGTAG,-0.0858
15,GAACTGCA,-0.0546
16,GATATCAA,0.0419
17,CAAGACTA,0.046
18,CATGGGAG,0.174
19,TGTGGCAA,0.0518
20,GACTCCAA,0.18
21,GCGACAAA,0.209
22,ACACTGAA,0.125
23,ATCTCAAA,0.13
24,ATACCTCC,-0.111
25,ACGCTCCA,-0.176

row,Sequence,PBM E-score
1,ACCTCCCC,0.00443
2,CCCGCCCG,0.123
3,GCGGTAAA,0.0323
4,ACAGGATA,0.177
5,TCATACCA,-0.207
6,AGATTGAA,-0.0596
7,TCTCCGAA,-0.134
8,AACATACC,-0.0923
9,CTAATTGA,0.121
10,CCACAATA,0.3
11,AATGGCTC,0.104
12,CGTAGGCA,-0.158
13,ATTGTCTA,0.00429
14,ATCTGATA,-0.0264
15,GCAATCGC,-0.113
16,CCTAACTC,0.00256
17,CAAACGTC,-0.0326
18,CTCTGCCA,-0.17
19,GCATACCC,-0.0102
20,CTCGGACA,-0.147
21,ATATTAAC,0.232
22,ATAACAAC,0.0852
23,GCTCGTTA,-0.266
24,ACTGCCGG,0.00898
25,AAAGTATC,0.0341

row,Sequence,PBM E-score
1,ATAAACCA,-0.204
2,ATCGCCTC,0.0027
3,AGCATTAC,0.0568
4,ACTACTGA,-0.188
5,GAAGGTGA,0.0876
6,AAAACTTC,0.0926
7,GGGATGAA,-0.207
8,AGTGCTTC,-0.0411
9,CATTTCAA,0.0908
10,GAGGCATA,0.0209
11,GCTGGAAA,0.107
12,CTCGGCCC,-0.242
13,CTCCGATC,-0.00026
14,ACTCACAG,-0.121
15,AGGAATAG,-0.131
16,AATCTCCG,-0.0956
17,TGCCTGAA,0.0285
18,ACCTACGC,-0.143
19,AAGGCCGA,-0.221
20,AAACGATC,-0.189
21,GAATAGGC,0.0784
22,CGGCCTCC,0.165
23,AGCTGACC,-0.0744
24,CGCGAACG,-0.0508
25,CAGTCTCA,0.0106

row,Sequence,PBM E-score
1,ATGCCAGC,0.011
2,GGGATCCC,0.419
3,AGCATGAT,0.0033
4,AGGGCACA,-0.184
5,GATCCTCA,0.0615
6,AGACGTAG,0.143
7,ATGGACGC,0.262
8,AGTAACAT,0.0315
9,AGGAATAA,-0.0706
10,ACAAATCT,0.22
11,ATACCATG,0.084
12,ACCTAAGA,0.239
13,CCGATTTA,0.194
14,GATGCGAA,0.126
15,ATGTATCC,0.12
16,GCACAATA,-0.202
17,ATTGGAAG,0.363
18,ACCCTGCC,-0.0994
19,GGCTCGCA,-0.137
20,CTGGTGAC,-0.0303
21,GGAAAGCA,-0.17
22,CAGATTGA,-0.0838
